# Measurements from a collection of fitness landscapes (doi:10.1016/j.celrep.2020.107928).
# The full ranking holds about 81,000 sequences; the median of “one-hybrid fitness for binding NBS DNA” is about -0.1, and the highest 2% start at about 0.36. This is one part of the list.
# B1: Caulobacter ParB omega fusion; a variant is named by its letters at X, in order, B8GW30 (parent)
# chain: MESVVVGEPGMSEGRRGLGRGLSALLGEVDAAPAQAPGEQLGGSREAPIEILQRNPDQPRRTFREEDLEDLSNSIREKGVLQPILVRPSPDTAGEYQIVAGERAWRAAQRAGLKTVPIMVRELDDLAVLEIGIIENVQRADLNVLEEALSYKVLMEKFERTQENIAQTIGKSXSHVANXMRLLXLPDEVQSYLVSGELTAXHARAIAAAADPVALAKQIIEGGLSVRETEALARKAPNLSAGKSKGGRPPRVKDTDTQALESDLSSVLGLDVSIDHRGSTGTLTITYATLEQLDDLCNRLTRGI
# Variants of: B1
# Test: one-hybrid fitness for binding NBS DNA (the Noc-binding site; scaled: cognate 1, non-cognate 0); higher = stronger binding
# Details: with NBS DNA site
# Procedure, shortened: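 Caulobacter ParB libraries with four specificity codons randomised were screened by bacterial one-hybrid selection in the E. coli USO strain, using a HIS3 reporter whose site lies 19 bp from the promoter. Selection ran for 48 hours at 37°C on M9 lacking histidine, with 0.1 mM IPTG and 5 mM 3-AT. Plasmids were Illumina-sequenced before and after selection, three replicate libraries were pooled, and variants with under 10 reads were dropped. Fitness is the log change in each variant's read ratio to wild type, rescaled against the cognate and non-cognate sites.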
row,Variant,one-hybrid fitness for binding NBS DNA
1,YVKS,≤ 0.2
2,STKS,≤ 0.2
3,TRTM,≤ 0.2
4,GKAV,≤ 0.2
5,MDMP,≤ 0.2
6,GWDG,≤ 0.2
7,RAMW,≤ 0.2
8,SQRK,≤ 0.2
9,YRVL,≤ 0.2
10,RMCY,≤ 0.2
11,AYPS,≤ 0.2
12,DSAC,≤ 0.2
13,PHCC,≤ 0.2
14,IMRG,≤ 0.2
15,VELN,≤ 0.2
16,CPGV,≤ 0.2
17,NDYG,≤ 0.2
18,RHNK,≤ 0.2
19,QAQK,≤ 0.2
20,TENT,≤ 0.2
21,DRLM,≤ 0.2
22,NSTF,≤ 0.2
23,QFTM,≤ 0.2
24,IYRR,0.273

row,Variant,one-hybrid fitness for binding NBS DNA
1,RAHA,≤ 0.2
2,YISN,≤ 0.2
3,HVAL,≤ 0.2
4,HLAT,≤ 0.2
5,FTRS,≤ 0.2
6,MHNC,≤ 0.2
7,GFGM,≤ 0.2
8,GICF,≤ 0.2
9,RITV,0.342
10,GLDE,≤ 0.2
11,RTCI,≤ 0.2
12,HRNQ,≤ 0.2
13,DPKR,≤ 0.2
14,DPPL,≤ 0.2
15,TMNS,≤ 0.2
16,VAFW,≤ 0.2
17,RRIG,0.289
18,NSHL,0.297
19,RQMT,0.352
20,HHPQ,≤ 0.2
21,HFIF,≤ 0.2
22,LPAV,≤ 0.2
23,KSGV,≤ 0.2
24,RGGV,≤ 0.2

row,Variant,one-hybrid fitness for binding NBS DNA
1,QCKS,0.711
2,IQEG,≤ 0.2
3,VWQV,≤ 0.2
4,YRAL,≤ 0.2
5,SEQI,≤ 0.2
6,CSFR,≤ 0.2
7,SDMC,≤ 0.2
8,VLLF,≤ 0.2
9,FLKG,≤ 0.2
10,CERL,≤ 0.2
11,MRLV,≤ 0.2
12,LDYS,≤ 0.2
13,VVKR,≤ 0.2
14,DQMK,≤ 0.2
15,TGVV,≤ 0.2
16,GRDL,≤ 0.2
17,PCPW,≤ 0.2
18,SQKH,≤ 0.2
19,VMIG,≤ 0.2
20,PKYA,≤ 0.2
21,CCSR,≤ 0.2
22,HSVM,≤ 0.2
23,SWKG,≤ 0.2
24,DVAH,≤ 0.2

row,Variant,one-hybrid fitness for binding NBS DNA
1,PIQF,≤ 0.2
2,EADG,≤ 0.2
3,NSQN,≤ 0.2
4,RSDC,≤ 0.2
5,VFKC,≤ 0.2
6,WRHS,≤ 0.2
7,LANV,≤ 0.2
8,HDMN,≤ 0.2
9,QRYR,0.924
10,CRSD,≤ 0.2
11,FELR,≤ 0.2
12,PSKM,≤ 0.2
13,TDNL,≤ 0.2
14,GRFG,≤ 0.2
15,EPQC,≤ 0.2
16,YFVG,≤ 0.2
17,HWTA,≤ 0.2
18,QITM,≤ 0.2
19,QELM,≤ 0.2
20,SSEF,≤ 0.2
21,YTGA,≤ 0.2
22,PPHC,≤ 0.2
23,NCVC,≤ 0.2
24,RPYV,≤ 0.2

row,Variant,one-hybrid fitness for binding NBS DNA
1,WPNL,≤ 0.2
2,RNFL,≤ 0.2
3,RYWV,≤ 0.2
4,IIKG,≤ 0.2
5,EPAS,≤ 0.2
6,CMDY,≤ 0.2
7,ASSK,≤ 0.2
8,SGTT,≤ 0.2
9,PNVI,≤ 0.2
10,YHAS,≤ 0.2
11,QEYV,≤ 0.2
12,PLQC,≤ 0.2
13,SDRN,≤ 0.2
14,RVKW,≤ 0.2
15,NFMG,≤ 0.2
16,LKAF,≤ 0.2
17,VTTL,≤ 0.2
18,AMNE,≤ 0.2
19,SYFT,≤ 0.2
20,GATD,≤ 0.2
21,MGNL,≤ 0.2
22,ISPT,≤ 0.2
23,RDEL,≤ 0.2
24,PRNC,≤ 0.2

row,Variant,one-hybrid fitness for binding NBS DNA
1,RQRW,≤ 0.2
2,YYPG,≤ 0.2
3,QYTQ,≤ 0.2
4,RPNG,≤ 0.2
5,VPRA,≤ 0.2
6,CPFF,≤ 0.2
7,FNVC,≤ 0.2
8,QAGY,≤ 0.2
9,FAFM,≤ 0.2
10,SYRT,≤ 0.2
11,HCGR,≤ 0.2
12,RVNF,≤ 0.2
13,PLMY,≤ 0.2
14,PRGR,≤ 0.2
15,HKRR,≤ 0.2
16,DSDV,≤ 0.2
17,THST,≤ 0.2
18,LTIA,≤ 0.2
19,LKYL,≤ 0.2
20,ACKM,≤ 0.2
21,CTIW,≤ 0.2
22,LADR,≤ 0.2
23,WARG,≤ 0.2
24,DNHS,≤ 0.2

row,Variant,one-hybrid fitness for binding NBS DNA
1,HAAA,≤ 0.2
2,CGLF,≤ 0.2
3,NTCS,≤ 0.2
4,LWHG,≤ 0.2
5,MRTP,≤ 0.2
6,FSKC,≤ 0.2
7,RQNR,0.559
8,CYES,≤ 0.2
9,HNCS,≤ 0.2
10,ASRC,≤ 0.2
11,FNIT,≤ 0.2
12,TLKI,≤ 0.2
13,QQTD,≤ 0.2
14,RFYT,≤ 0.2
15,PDGY,≤ 0.2
16,NVRS,≤ 0.2
17,QINC,≤ 0.2
18,YFMR,≤ 0.2
19,QHKQ,0.404
20,KWGS,≤ 0.2
21,TRRQ,≤ 0.2
22,VHAC,≤ 0.2
23,LRHI,≤ 0.2
24,PLIL,≤ 0.2

row,Variant,one-hybrid fitness for binding NBS DNA
1,ELPI,≤ 0.2
2,CLMI,≤ 0.2
3,QNEV,≤ 0.2
4,PLND,≤ 0.2
5,MVNK,≤ 0.2
6,QSYK,≤ 0.2
7,NGYS,≤ 0.2
8,TPSA,≤ 0.2
9,HKVM,≤ 0.2
10,YPRT,≤ 0.2
11,QCHG,≤ 0.2
12,AKMS,≤ 0.2
13,GSPF,≤ 0.2
14,VLLS,≤ 0.2
15,NRKA,≤ 0.2
16,PDIR,≤ 0.2
17,STKN,≤ 0.2
18,QNAL,≤ 0.2
19,IDYA,≤ 0.2
20,HRPP,≤ 0.2
21,QYMC,≤ 0.2
22,TYCY,≤ 0.2
23,AMTI,≤ 0.2
24,FPFL,≤ 0.2

row,Variant,one-hybrid fitness for binding NBS DNA
1,ITHR,≤ 0.2
2,NWRD,≤ 0.2
3,IYRG,≤ 0.2
4,YSNL,≤ 0.2
5,SHLR,≤ 0.2
6,YILL,≤ 0.2
7,RNWC,≤ 0.2
8,PKGA,≤ 0.2
9,CLVH,≤ 0.2
10,CRYS,≤ 0.2
11,HQFL,≤ 0.2
12,ISMK,≤ 0.2
13,PADG,≤ 0.2
14,TLHR,≤ 0.2
15,AWLS,≤ 0.2
16,KTGT,≤ 0.2
17,QYGS,0.377
18,DDIR,≤ 0.2
19,LFYI,≤ 0.2
20,PNDE,≤ 0.2
21,QAPM,≤ 0.2
22,KTKL,≤ 0.2
23,QTDL,≤ 0.2
24,TWRK,≤ 0.2

row,Variant,one-hybrid fitness for binding NBS DNA
1,RDWI,≤ 0.2
2,SNLQ,≤ 0.2
3,PGIG,≤ 0.2
4,EHGR,≤ 0.2
5,DIDF,≤ 0.2
6,RYCL,≤ 0.2
7,QQPW,≤ 0.2
8,HAKK,≤ 0.2
9,LRYS,≤ 0.2
10,SPNW,≤ 0.2
11,TQSS,≤ 0.2
12,NYYG,≤ 0.2
13,GYLG,≤ 0.2
14,DSLA,≤ 0.2
15,AFPY,≤ 0.2
16,RPQM,≤ 0.2
17,IVTP,≤ 0.2
18,RLLN,≤ 0.2
19,VNVR,≤ 0.2
20,LAHT,≤ 0.2
21,ECQL,≤ 0.2
22,IRYE,≤ 0.2
23,LWDS,≤ 0.2
24,CGCR,≤ 0.2

row,Variant,one-hybrid fitness for binding NBS DNA
1,NPVR,≤ 0.2
2,RHAM,≤ 0.2
3,NMCG,≤ 0.2
4,SACF,≤ 0.2
5,QIKR,0.853
6,TCGG,≤ 0.2
7,QFPP,≤ 0.2
8,IVFV,≤ 0.2
9,SDDG,≤ 0.2
10,VMNT,≤ 0.2
11,AERM,≤ 0.2
12,VYNS,≤ 0.2
13,ETDS,≤ 0.2
14,LSME,≤ 0.2
15,AIKR,0.209
16,HHVT,≤ 0.2
17,NCIG,≤ 0.2
18,WSMS,≤ 0.2
19,SVRW,≤ 0.2
20,LPNR,≤ 0.2
21,PMRN,≤ 0.2
22,RFYC,≤ 0.2
23,YFTG,≤ 0.2
24,IYAV,≤ 0.2

row,Variant,one-hybrid fitness for binding NBS DNA
1,AMDV,≤ 0.2
2,VHTA,≤ 0.2
3,QDMY,≤ 0.2
4,PNVW,≤ 0.2
5,HGPV,≤ 0.2
6,VTFI,≤ 0.2
7,KPWS,≤ 0.2
8,RHYL,≤ 0.2
9,LSHW,≤ 0.2
10,PSQN,≤ 0.2
11,CGIR,≤ 0.2
12,CGQR,≤ 0.2
13,SFLC,≤ 0.2
14,EGHS,≤ 0.2
15,LSVQ,≤ 0.2
16,NVRN,≤ 0.2
17,GSNV,≤ 0.2
18,TWQR,≤ 0.2
19,IFPR,≤ 0.2
20,HRIR,≤ 0.2
21,NSRE,≤ 0.2
22,GGTV,≤ 0.2
23,ATQC,≤ 0.2
24,GNNC,≤ 0.2

row,Variant,one-hybrid fitness for binding NBS DNA
1,TMIN,≤ 0.2
2,FKSC,≤ 0.2
3,RDNC,≤ 0.2
4,GMCW,≤ 0.2
5,DLVR,≤ 0.2
6,DINR,≤ 0.2
7,MCTK,≤ 0.2
8,TRNI,≤ 0.2
9,PLAS,≤ 0.2
10,VPYG,≤ 0.2
11,RTSC,≤ 0.2
12,LVTW,≤ 0.2
13,PPTY,≤ 0.2
14,EDMG,≤ 0.2
15,PILS,≤ 0.2
16,LPQL,≤ 0.2
17,GNAR,≤ 0.2
18,YRNI,≤ 0.2
